# Data: PubChem BioAssay AID504832 (National Center for Advancing Translational Sciences (NCATS), 2011)
# About 18,000 (5.8%) of roughly 310,000 compounds were called active. Inconclusive means that the source gave no clear call. Such entries were picked first, then a sample of the others. Calls follow the shape of the dose curve; as a rule, active = well fitted inhibition curve with a large enough effect; inconclusive = small, poorly fitted or top-dose-only effect, or another doubt; inactive = no such curve, though single readings can be large or run the other way. Potencies of inconclusive entries are left out as doubtful fits.
# Assay: Primary qHTS for delayed death inhibitors of the malarial parasite plastid, 48 hour incubation
# Details: P. falciparum luciferase growth in erythrocytes; series mostly up to 28.7 µM
# Summary of the method: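 Here the parasites carry a stable luciferase gene and grow inside erythrocytes in Albumax-based RPMI medium with compound for one erythrocytic cycle. Activity is scored as loss of luminescent signal.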
# Potency is read from the fitted curve at half-maximal effect; tags tell the direction and shape of the fitted curve.
row,Structure (SMILES),Potency
1,CC(Oc1ccccc1)C(=O)Nc1ccc(S(=O)(=O)N2CCCC2)cc1 (stereo not given),"inconclusive [inhibitor, single point]"
2,Cc1ccc(NC(=O)c2nc[nH]c2C(=O)N[C@H](C)c2ccccc2)cc1,"inconclusive [inhibitor, single point]"
3,C=CCC1(C(=O)NCCO)CCN(C(=O)OC(C)(C)C)CC1,inactive
4,N#CCc1ccc(Oc2ccc([N+](=O)[O-])cn2)cc1,"inconclusive [inhibitor, single point]"
5,CSc1cccc(NC(=O)c2ccc(Cl)nc2)c1,"inconclusive [inhibitor, single point]"
6,Cc1nc2ccccn2c1C(=O)N/N=C/c1cc(C)n(-c2ccc(Br)cc2)c1C,"inconclusive [inhibitor, single point]"
7,COCCn1c(=NC(=O)C2COc3ccccc3O2)sc2cc(S(N)(=O)=O)ccc21 (stereo not given),inactive
8,Cc1ccc(C)c(NS(=O)(=O)c2ccc(OCC(=O)NCc3ccco3)cc2)c1,"inconclusive [inhibitor, partial curve, poor fit]"
9,Cc1cc(C)n(-c2ccc(NN=C(C#N)C#N)cc2)n1,"inconclusive [inhibitor, full curve, poor fit]"
10,CCOc1ccc(S(=O)(=O)N2CCN(c3ccc(OC)cc3)CC2)c2cccnc12,"inconclusive [inhibitor, partial curve]"
11,CCN(CC)S(=O)(=O)c1ccc(N2CCOCC2)c(NCC(=O)Nc2ccc(F)cc2)c1,"inconclusive [inhibitor, single point]"
12,O=C1C=C(c2cccc(Cl)c2O)C[C@@H](c2ccc(Cl)cc2)C1,active: 2.94 µM
13,COc1ccc(CNC(=O)CN2C(=O)CC(c3ccccc3)=Nc3ccccc32)cc1,inactive
14,COc1cccc(-n2cn[nH]c2=S)c1,inactive
15,CCOc1ccc(CN2CCN(Cc3cccn3-c3cccnc3)CC2CCO)cc1 (stereo not given),"inconclusive [inhibitor, single point]"
16,Cc1cc(OCCn2ccnc2)cc(C)c1Cl,"inconclusive [inhibitor, partial curve, poor fit]"
17,Cn1c(OCc2cccnc2)nc2c1c(=O)n(Cc1ccc(F)cc1)c(=O)n2C,"inconclusive [inhibitor, partial curve]"
18,CCOc1nc(-c2ccccc2)ccc1-c1noc(COc2ccccc2)n1,"inconclusive [inhibitor, single point]"
19,COc1ccc(C2=NN(C(=O)CSc3nnc(C)n3C)C(c3ccco3)C2)cc1 (stereo not given),"inconclusive [inhibitor, partial curve, poor fit]"
20,Cc1ccc(S(=O)(=O)Cn2nnnc2C(C(C)C)N2CCc3ccccc3C2)cc1 (stereo not given),inactive
21,O=C(NN1C(=O)c2ccccc2NC1c1ccoc1)c1ccccc1 (stereo not given),inactive
22,CCCOc1ccc(N)cc1N,inactive
23,Cc1ccccc1N1C(=O)CC(N(O)c2ccccc2)C1=O (stereo not given),inactive

row,Structure (SMILES),Potency
1,COc1ccc(S(=O)(=O)N2CCN(C(=O)C3CCCO3)CC2)cc1 (stereo not given),inactive
2,CCCc1cc(=O)c2c(O)ccc(OC)c2o1,"inconclusive [inhibitor, single point]"
3,COc1ccc(CCN(C(=O)C(F)(F)F)C(C(=O)NC2CCCCC2)c2cccs2)cc1 (stereo not given),active: 9.28 µM
4,COc1ccccc1NS(=O)(=O)c1cc(C(=O)NCC(c2ccco2)N2CCCCC2)ccc1C (stereo not given),active: 11.7 µM
5,CN(CC(=O)Nc1ccc(Cl)c(C(F)(F)F)c1)C(=O)C1CSC2(C)CCC(=O)N12 (stereo not given),"inconclusive [inhibitor, single point]"
6,Cc1sc(NC(=O)c2ccco2)c(CN2CCN(Cc3ccccc3)CC2)c1C,active: 9.28 µM
7,COc1ccc(-c2csc(NC(=O)CS(=O)(=O)c3ccc(F)cc3)n2)cc1OC,"inconclusive [inhibitor, single point]"
8,O=C(Nc1ccccc1C(=O)NCCN1CCOCC1)c1cccc([N+](=O)[O-])c1,"inconclusive [inhibitor, partial curve, poor fit]"
9,CCN(C(=O)COC(=O)/C=C/c1ccc(OC(F)F)c(OC)c1)C1CCS(=O)(=O)C1 (stereo not given),"inconclusive [inhibitor, single point]"
10,O=C(NCCN1CCCC1)c1cccc(Cl)c1,inactive
11,CN(C)c1nc(N/N=C/c2c[nH]c3ccccc23)nc(N2CCOCC2)n1,"inconclusive [inhibitor, full curve, poor fit]"
12,CN1CCN(C(=S)NC(=O)c2cccc(S(=O)(=O)N(C)C)c2)CC1,inactive
13,O=C(NC1CCN(Cc2ccccc2)CC1)c1cc(Br)c(Br)[nH]1,"inconclusive [inhibitor, single point]"
14,Clc1cccc(-c2cc3nc4c(c(N5CCN(c6cnccn6)CC5)n3n2)CCCC4)c1,active: 2.08 µM
15,Cc1cccc(NC(=O)c2sc3nc(N)c(C#N)cc3c2N)c1,"inconclusive [inhibitor, single point]"
16,Cc1ccc(C)c(S(=O)(=O)Nc2ccc(C(=O)N3CCC3)cc2)c1,inactive
17,CCn1c(C)c(C(C)=O)c(N2CCN(c3cccc(Cl)c3)CC2)nc1=S,"inconclusive [inhibitor, single point]"
18,Cc1cc(C)nc(N2CCC(C(=O)NCCc3ccc(F)cc3)CC2)n1,"inconclusive [inhibitor, partial curve, poor fit]"
19,COc1ccc(OC)c(C(=O)CSc2nnc(Cc3cccs3)n2C)c1,"inconclusive [inhibitor, partial curve, poor fit]"
20,COc1ccc(OC)c(CNC(=O)C2CCCN(S(=O)(=O)N3CCC(C)CC3)C2)c1 (stereo not given),"inconclusive [inhibitor, single point]"
21,O=C(NCc1ccco1)N1c2ccccc2Sc2ccccc21,"inconclusive [inhibitor, single point]"
22,COc1ccc(O)c(C(=O)c2cc(C(=O)NCCc3ccccc3)c(=O)n(CCc3ccccc3)c2)c1,"inconclusive [inhibitor, partial curve, poor fit]"
